Results: patent US20110117082A1 (SHANGHAI FUDAN ZHANGJIANG BIO PHARMACEUTICAL, published 2011)

Tests used:
[1] = biological target: T1, tumor necrosis factor α (TNFα) (UniProt P01375 in part); experiment: cell-based or functional assay
[2] = biological target: T1, tumor necrosis factor α (TNFα); experiment: SPR, Biacore3000, receptor:Fc amine-coupled to CM5 chip, ligand in flow, 1:1 Langmuir fit
[3] = biological target: T2, LT28-171 (lymphotoxin) (UniProt P01374 62-205); experiment: as above
T2 construct: range 28-171; these probably count on the mature protein (171 residues), not on the precursor
T2 sequence (looked up): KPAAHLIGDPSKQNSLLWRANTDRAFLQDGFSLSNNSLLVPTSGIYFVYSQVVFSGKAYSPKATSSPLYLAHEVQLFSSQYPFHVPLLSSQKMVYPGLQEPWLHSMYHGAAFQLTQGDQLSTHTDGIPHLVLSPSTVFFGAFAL

[4] = biological target: T2, LT28-171 (lymphotoxin); experiment: cell-based or functional assay

T1 sequence (P01375 77-233 limits assumed): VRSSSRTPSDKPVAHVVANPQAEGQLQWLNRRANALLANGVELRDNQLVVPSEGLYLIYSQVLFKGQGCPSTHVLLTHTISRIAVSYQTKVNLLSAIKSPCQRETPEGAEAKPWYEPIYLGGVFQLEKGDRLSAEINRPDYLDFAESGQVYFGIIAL

B1: TNFRp75 (E92N, W89Y): Fc fusion protein (Fc fusion)
chain: LPAQVAFTPYAPEPGSTCRLREYYDQTAQMCCSKCSPGQHAKVFCTKTSDTVCDSCEDSTYTQLWNYVPNCLSCGSRCSSDQVETQACTREQNRICTCRPGWYCALSKQEGCRLCAPLRKCRPGFGVARPGTETSDVVCKPCAPGTFSNTTSSTDICRPHQICNVVAIPGNASMDAVCTSTSPTRSMAPGAVHLPQPVSTRSQHTQPTPEPSTAPSTSFLLPMGPSPPAEGSTGD[letters of human IgG1 Fc omitted]
Q: Which “EC50(ng/ml) of the neutralizing activity of the mutants (Example 9: against the cytotoxicity of TNFα)” value [1] does the source give for B1 here?
A: 5.04 ng/mL

Q: And the Kd [2]?
A: 0.133 nM

Q: What about the koff [2] of the same binder?
A: 1.29e-06 s⁻¹

Q: What about the kon [2] of the same binder?
A: 9720 M⁻¹ s⁻¹

Q: And the Kd [3]?
A: 0.0874 nM

Q: What about the koff [3] of the same binder?
A: 1.64e-06 s⁻¹

Q: And the kon [3]?
A: 18800 M⁻¹ s⁻¹

Q: And the “EC50(ng/ml) of the neutralizing activity of the mutants against LT” value [4]?
A: 3.74 ng/mL
